These results are taken from ChEMBL document CHEMBL4888484, “Replenishing the malaria drug discovery pipeline: Screening and hit evaluation of the MMV Hit Generation Library 1 (HGL1) against asexual blood stage Plasmodium falciparum ,using a nano luciferase reporter read-out” (2022).

Out of some 150,000 compounds screened, about 540 (0.36%) showed an effect of 50% or more. The list shows a part of the results.

The test system of this experiment is Plasmodium falciparum. Put plainly: Primary screen in NF54 nanoGlo assay, in single point, at 2uM, 72h; a lower Z score goes with more inhibition. It counts as functional, Erythrocyte. Conditions: timepoint 72 hour.
What is called % Inhibition is the change of the read-out against control, counted positive when it falls. Turning to `Cn1cc(-c2ccc(NC(=O)N3CCOCC4(CC4)C3)nn2)cn1`, the “% Inhibition” value is -12% and the Z score is recorded as 1.38.

Turning to `CC1CC1C(=O)NCCC(=O)N(C)CC#N` (configuration not stated), the “% Inhibition” value was -2% and the Z score is recorded as 0.36.

With `C[C@@H](c1ccccn1)N(C)Cc1noc2c1CCCC2`, the “% Inhibition” value is recorded as -8% and the Z score came out at 1.08.

In the case of `Cc1c(C(=O)NCc2ccccc2F)sc2ncnc(N(C)C3CCCCC3)c12`, the “% Inhibition” value is given as -16% and the Z score worked out at 1.49.

As to `c1cncc(-c2cc(CN[C@H]3CCOC34CCCCC4)n[nH]2)c1`, the “% Inhibition” value is 18% and the Z score is on record as -2.3.

Consider `COCCn1nc(-c2ccc3c(c2)OCO3)ccc1=O`, for which the “% Inhibition” value was 4% and the Z score is -0.57.

Consider `CN1CCN(S(=O)(=O)c2cccc(F)c2)C[C@H]1c1ccccc1`, for which the “% Inhibition” value is recorded as -6% and the Z score stood at 0.96.

Regarding `COc1ccc(Cl)cc1S(=O)(=O)N1CC[C@@]2(CCCNC2=O)C1`, the “% Inhibition” value was -10% and the Z score stood at 1.93.

For the molecule `Cc1cnc(C(=O)N2CCOc3ccc(CN4CCN(c5ccccc5)CC4)cc3C2)cn1`, the “% Inhibition” value came out at 5% and the Z score is recorded as -0.67.

Take `O=C(CC(=O)NCc1cccnc1)NCc1cccnc1`: the “% Inhibition” value was -20% and the Z score is listed as 2.36.

In the case of `CCCN1CCN(CCCNC(=O)c2cc3cc(S(=O)(=O)N(C)C)ccc3n2CC)CC1`, the “% Inhibition” value was -15% and the Z score is on record as 2.13.

In the case of `CC(c1nnnn1C)N1CCCC(c2nc3c(s2)CCCC3)C1` (configuration not stated), the “% Inhibition” value is listed as 7% and the Z score is -1.03.

Regarding `Cc1ccc(-n2ncc3c(N4CCCN(C(=O)C5CCCC5)CC4)nc(C)nc32)c(C)c1`, the “% Inhibition” value is given as -8% and the Z score turned out to be 1.32.

For `O=c1cnn(Cc2c(Cl)cccc2Cl)c2ccccc12`, the “% Inhibition” value was -6% and the Z score was determined as 0.72.

On to `CC(C)(C)CN1C[C@@H](NC(=O)C2=NNC(=O)CC2)CC1=O`, for which the “% Inhibition” value is -8% and the Z score is reported as 1.29.

`CCOC(=O)c1sc(N(C)Cc2nnc[nH]2)nc1C`: the “% Inhibition” value is reported as -4% and the Z score came to 0.39.

Take `Cc1nn(Cc2cccnc2)c(=O)n1C`: the “% Inhibition” value is recorded as -5% and the Z score worked out at 0.69.

With `CCN(Cc1ccccc1Br)[C@H]1CCNC1=O`, the “% Inhibition” value is reported as -10% and the Z score is listed as 1.14.

Turning to `C[C@@H]1CN(CC2CCCN(C(=O)OC(C)(C)C)C2)C[C@H](C)O1` (some centres not stated), the “% Inhibition” value is given as -4% and the Z score came out at 0.67.

Turning to `C[C@H]1CCCN(c2ncnc(Oc3ccc4c(c3)OCO4)c2N)C1`, the “% Inhibition” value is 4% and the Z score is reported as -0.73.

Consider `O=C(NCCc1csc(N2CCCC2)n1)c1cscn1`, for which the “% Inhibition” value is on record as -17% and the Z score is 2.36.

Turning to `FS(F)(F)(F)(F)c1ccc2nc(NCc3nnn[nH]3)sc2c1`, the “% Inhibition” value is -12% and the Z score worked out at 2.22.

Regarding `Nc1c2c(nc3c1cnn3-c1cccc(F)c1)C[C@H](c1cc(F)cc(F)c1)CC2=O`, the “% Inhibition” value is recorded as -11% and the Z score came out at 1.43.

For the molecule `CCOC[C@H]1CCN(C(=O)Nc2ncc(C(C)(C)C)s2)C1`, the “% Inhibition” value stood at 16% and the Z score is reported as -1.91.

Regarding `Cc1cc(NCCc2ncccc2C)nc(C)n1`, the “% Inhibition” value was -11% and the Z score is given as 1.24.

Consider `O=C(CC1CCCC1)Nc1ccccn1`, for which the “% Inhibition” value is reported as -6% and the Z score amounted to 0.64.

Take `COc1ccc(CNc2nccc(-n3nc(C)cc3C)n2)c(OC)c1`: the “% Inhibition” value is -3% and the Z score was 0.48.

In the case of `CCc1ccc([C@@H]2COCCN2Cc2nnc(C)o2)o1`, the “% Inhibition” value is reported as 2% and the Z score is reported as -0.27.

On to `CN(c1nccc(C#N)n1)C1CCCCCC1`, for which the “% Inhibition” value is reported as -14% and the Z score was 1.86.

As for `CCOc1ccc(CNC(=O)[C@H]2CCCN(S(=O)(=O)N3CCC(C)CC3)C2)cc1OC`, the “% Inhibition” value is -13% and the Z score turned out to be 2.28.

`O=C(NCc1cccnc1)c1cc(-c2cccc3ccccc23)[nH]n1`: the “% Inhibition” value is reported as 33% and the Z score is reported as -3.73.

As for `CN(Cc1nc2ccccc2c(=O)[nH]1)C(=O)c1ccc2c(c1)OCO2`, the “% Inhibition” value is -5% and the Z score was 0.88.

As to `CCc1nsc(N2CCC[C@H](c3n[nH]c(N)n3)C2)n1`, the “% Inhibition” value is -8% and the Z score stood at 1.58.

Turning to `Cc1cccc(C(=O)N2CCC(NC(=O)c3ccoc3C)CC2)n1`, the “% Inhibition” value is -8% and the Z score came to 1.51.

Turning to `CS(=O)(=O)N[C@H]1CCCN(C(=O)C2CCC2)C1`, the “% Inhibition” value is recorded as -6% and the Z score is given as 0.54.

Take `COC(=O)[C@H](CO)NC(=O)c1cccc(NCC(C)(C)C)c1C`: the “% Inhibition” value was 6% and the Z score was -0.72.

With `COC(=O)c1n[nH]cc1CN1CCC[C@H]1c1nc2ccccc2s1`, the “% Inhibition” value is -5% and the Z score is listed as 0.51.

As to `COC(=O)c1ccc(Nc2cc(C(=O)N3CCC[C@H](C)C3)nc3ccc(C)cc23)cc1`, the “% Inhibition” value turned out to be 3% and the Z score is given as -0.64.

For `COc1cnc(N(C)C(=O)c2cnc(C(C)(C)C)s2)nc1`, the “% Inhibition” value was -9% and the Z score came out at 1.31.

As to `Cc1c(C(=O)N(CCc2ccccc2)CC(=O)O)cccc1N1CCNC1=O`, the “% Inhibition” value was 6% and the Z score is recorded as -1.17.

Turning to `C[C@H](NCc1ccnn1C)c1cn[nH]c1`, the “% Inhibition” value is -15% and the Z score was 2.92.

Regarding `CC/C=C(/CN1CCC(N2CCN(CCO)CC2)CC1)c1ccccc1`, the “% Inhibition” value is listed as -6% and the Z score was found to be 0.72.

As to `c1coc(-c2nc(C3CC3)nn2C2CCCCC2)c1`, the “% Inhibition” value is on record as -9% and the Z score was 0.98.

For `O=C(Nc1cccc(-c2nc3ccccc3s2)c1)c1ccc(-c2ccccc2)cc1`, the “% Inhibition” value turned out to be 2% and the Z score was -0.33.

For `Cc1ccccc1NC(=O)N1C[C@@H]2[C@H]3CC[C@H](CC3)[C@@H]2C1`, the “% Inhibition” value was 9% and the Z score is -1.8.

As for `Cn1c([C@H]2CCN(C(=O)C3CCCCC3)C2)nc2ccccc21`, the “% Inhibition” value is recorded as 5% and the Z score is recorded as -0.88.

With `O=C(Cc1cccnc1)NC[C@H]1CCCOC1`, the “% Inhibition” value stood at 7% and the Z score is given as -0.76.

In the case of `CCN(CC)CC#C[C@H](C)OC(=O)c1cccc(C(=O)NC)c1`, the “% Inhibition” value is -3% and the Z score turned out to be 0.45.

On to `Cc1[nH]c2ccc(CNc3nccc(N)n3)cc2c1C`, for which the “% Inhibition” value is -5% and the Z score was found to be 0.52.

With `C#CCCC1(CCC(=O)N2C[C@@H]3CCCN3c3ccccc32)N=N1`, the “% Inhibition” value was -7% and the Z score worked out at 0.87.

With `COCc1noc(CNc2cc3c(cc2Br)CCC3)n1`, the “% Inhibition” value is -11% and the Z score was 1.42.

On to `CCN1CCC2CCC(C1)N2C(=O)c1cc(O)cc(O)c1` (configuration not stated), for which the “% Inhibition” value is reported as -6% and the Z score was 0.96.

As to `CCC(=O)N1CCCC[C@H]1c1nnc2n1CCN(C(=O)NC1CCCC1)C2`, the “% Inhibition” value was -3% and the Z score amounted to 0.41.

For `CC1CCC(N2CC(=O)N(C3CCCC3)[C@@H](c3ccc(Cl)cc3)C2=O)CC1` (some centres not stated), the “% Inhibition” value was determined as 2% and the Z score is on record as -0.38.

In the case of `COc1ccc(OCC(=O)NC(C)C)c(C(N)=O)c1`, the “% Inhibition” value is reported as 3% and the Z score is listed as -0.49.

As for `CC[C@@]1(C)CCCN(C(=O)Cc2c(C)noc2Cl)C1`, the “% Inhibition” value was 85% and the Z score is recorded as -13.67.
